B1: Nanobody 15G11 (VHH)
VHH: EVQLVESGGGLVQAGDSLRVSCAASGRTSSYAMAWFRQAPGKEREFVGTISRTNSRTKYADFVEGRFTISRDNAKSTLSLQMTSLKPEDTAVYYCAAKWTGNSYHDYTWSKVDEYNVWGQGTQVTVSS
B2: Nanobody 283F1 (VHH)
VHH: EVQLVESGGGLVQAGGSLRLSCVASVNIFGSIAMAWYRQAPGKQRNLVASISSGGRINYADSRKGRFTISRDNTKNTVHLQMNSLEPEDTAVYYCAAGRIGQRTLTFTPDYWGQGTQVTVSS
notes: Purified Nanobody
B3: Nanobody 01E2 (VHH)
VHH: EVQLVESGGGLVQAGGSLRLSCAASGRTSASYSMGWFRQAPGKEREFVAAISWSGDETSYADSVKGRFTIARGNAKNTVYLQMNSLKSEDTAIYYCAGDRWWRPAGLQWDYWGQGTQVTVSS
notes: Anti-human CD4 Nanobody; not shown: C-terminal myc-His6 tag
B4: 03F11-25GS-281F12 (bispecific antibody, not shown: small tags and cut ends)
chain: EVQLVESGGGSVQPGGSLTLSCGTSGRTFNVMGWFRQAPGKEREFVAAVRWSSTGIYYTQYADSVKSRFTISRDNAKNTVYLEMNSLKPEDTAVYYCAADTYNSNPARWDGYDFRGQGTQVTVSSGGGGSGGGGSGGGGSGGGGSGGGGSEVQLVESGGGLVQAGDSLRLSCAASGRAFSRYAMGWFRQAPGKEREFVAAIGWGPSKTNYADSVKGRFTISRDNAKNTVYLQMNTLKPEDTAVYSCAAKFVNTDSTWSRSEMYTYWGQGTQVTVSS
B5: 03F11-9GS-281F12 (bispecific antibody, not shown: small tags and cut ends)
chain: EVQLVESGGGSVQPGGSLTLSCGTSGRTFNVMGWFRQAPGKEREFVAAVRWSSTGIYYTQYADSVKSRFTISRDNAKNTVYLEMNSLKPEDTAVYYCAADTYNSNPARWDGYDFRGQGTQVTVSSGGGGSGGGGSEVQLVESGGGLVQAGDSLRLSCAASGRAFSRYAMGWFRQAPGKEREFVAAIGWGPSKTNYADSVKGRFTISRDNAKNTVYLQMNTLKPEDTAVYSCAAKFVNTDSTWSRSEMYTYWGQGTQVTVSS
B6: Nanobody 283B6 (VHH)
VHH: EVQLVASGGGLVQAGGSLRLSCAVSGTTFSVATLGWYRQAPGQQRALVADISSGGSTNYADSVRGRFTISRDNAKNLAYLQMNSLKPEDTAVYYCNARTSGWRTRSNYWGQGTQVTVSS
notes: Purified Nanobody
B7: Nanobody 283E2 (VHH)
VHH: EVQLVESGGGLVQAGGSLRLSCAVSGTTFSVATLGWYRQAPGQQRALVADISSGGSTNYADSVRGRFTISRDNAKNLAYLQMNSLKPEDTAVYYCNARTSGWRTRSNYWGQGTQVTVSS
notes: Purified Nanobody
B8: 281F12-9GS-03F11 (bispecific antibody, not shown: small tags and cut ends)
chain: EVQLVESGGGLVQAGDSLRLSCAASGRAFSRYAMGWFRQAPGKEREFVAAIGWGPSKTNYADSVKGRFTISRDNAKNTVYLQMNTLKPEDTAVYSCAAKFVNTDSTWSRSEMYTYWGQGTQVTVSSGGGSGGGGSEVQLVESGGGSVQPGGSLTLSCGTSGRTFNVMGWFRQAPGKEREFVAAVRWSSTGIYYTQYADSVKSRFTISRDNAKNTVYLEMNSLKPEDTAVYYCAADTYNSNPARWDGYDFRGQGTQVTVSS
B9: Nanobody 01H12 (VHH)
VHH: EVQLVESGGGLVQAGGSLKLSCAASRSILDFNAMGWYRQAPGKQREWVTTIARAGATKYADSVKGRFSISRDNAKNTVYLQMSSLKPEDTATYYCNARVFDLPNDYWGQGTQVTVSS
notes: as for B3
B10: Nanobody 281D4 (VHH)
VHH: EVQLVESGGGLVQAGGSLRLSCAASGGTFNNYAMGWFRRAPGKEREFVAAISRSGVRTGVSALYGDSVKDRFTISRDNAKNTLYLQMNKMKPEDTAVYTCAASAIGSGALRRFEYDSSGQGTQVTVSS
notes: Purified Nanobody
B11: Nanobody 281E10 (VHH)
VHH: EVQLVESGGGLVQAGGSLRLSCKASGGTFNNYAMGWFRRAPGKEREFVAAITRSGVRSGVSAIYGDSVKDRFTISRDNVKNTLYLQMNTLKPEDTAVYTCAASAIGSGALRRFEYDYSGQGTQVTVSS
notes: Purified Nanobody
B12: Nanobody 281A6 (VHH)
VHH: EVQLVESGGGLVQTGGSLRLSCAASGGTFNNYAMGWFRRAPGKEREFVAAISRSGVRTGVSALYGDSVKDRFTISRDNAKNTLYLQMNKMKPEDTAVYTCAASAIGSGALRRFEYDSSGQGTQVTVSS
notes: Purified Nanobody
B13: Nanobody 281A5 (VHH)
VHH: EVQLVESGGGLVQAGGSLRLSCAASGRTFNNYAMGWFRRAPGKEREFVAAITRSGVRSGVSAIYGDSVKDRFTISRDNAKNTLYLQMNSLKPEDTAVYTCAASAIGSGALRRFEYDYSGQGTQVTVSS
notes: Purified Nanobody
B14: Nanobody 15A1 (VHH)
VHH: EVQLVESGGGLVQAGGSLRLSCAASGRTFSRAAMGWFRQAPGKEREFVGCALSSAGSALTADSVKGRFTISRDNAKNMVYLQMNNLKPEDTAVYSCVAGGYCTRAGVYPYWGQGTQVTVSS
notes: also called 15A01

Experiments:
[1] = target: T1, human CXCR4 (human, UniProt P61073 1-352); assay: cell-based or functional assay
[2] = target: T2, cynomolgus CXCR4 (cynomolgus, UniProt Q28474 1-352); assay: flow cytometry, transfected HEK293T cells, 10 nM, normalised to 12G5
T2 construct: whole, on cells; also called cyno CXCR4

[3] = target: T3, hCXCR4-V196E (human, UniProt P61073 1-352); assay: as above
T3 construct: whole, on cells

[4] = target: T1, human CXCR4; assay: competition with 12G5 (competitor, 1 nM), Jurkat cells, flow cytometry
[5] = target: T2, cynomolgus CXCR4; assay: flow cytometry, transfected HEK293T cells, 100 nM, normalised to 12G5
[6] = target: T3, hCXCR4-V196E; assay: as above
[7] = target: T1, human CXCR4; assay: cell-based or functional assay; remark: listed apart in the source
[8] = target: T1, human CXCR4; assay: [125I]-SDF-1 displacement, HEK293-CXCR4 membrane extracts, n = 3
[9] = target: T4, recombinant human CD4 (ImmunoDiagnostics, cat#7001) (human, UniProt P01730 26-396, limits assumed); assay: phage ELISA on coated recombinant human CD4, monoclonal phage supernatant, anti-M13-HRP
T4 construct: Bought recombinant protein; also called biotinylated CD4

[10] = target: human CXCR4 and human CD4 co-expressed on the same cell surface (human, UniProt P61073 1-352); assay: cell-based or functional assay

Binder	IC50, HIV-1 CM237 (clade B) infectivity in PBMC [7]	IC50, HIV-1 NL4.3 (X4) infectivity in PBMC [7]	IC50, HIV-1 UG270 (clade D) infectivity in PBMC [7]	IC90, HIV-1 CM237 (clade B) infectivity in PBMC [7]	IC90, HIV-1 NL4.3 (X4) infectivity in PBMC [7]	IC90, HIV-1 UG270 (clade D) infectivity in PBMC [7]	pKi [8]	other results
B1								IC50, HIV1 neutralisation (NL4.3 in MT-4 cells) [1]: 17.7 nM; % binding relative to hCXCR4 [2]: 95.1%; % binding relative to hCXCR4 [3]: 22.1%; IC50 [4]: 6.2 nM; % binding relative to hCXCR4 [5]: 96.1%; % binding relative to hCXCR4 [6]: 39.3%
B2	1.2 nM	0.76 nM	1 nM	5.1 nM	3.6 nM	8.1 nM	7.93	
B3								binding result [9]: binds
B4								IC50, MT-4 + NL4.3 (X4) [10]: 9.2 nM; IC50, PBMC + BaL (R5) [10]: 383 nM; IC50, PBMC + NL4.3 (X4) [10]: 8.7 nM; IC50, U87 + NL4.3 (X4) [10]: > 3330 nM
B5								IC50, MT-4 + NL4.3 (X4) [10]: 14.9 nM; IC50, PBMC + BaL (R5) [10]: > 666 nM; IC50, PBMC + NL4.3 (X4) [10]: 17 nM; IC50, U87 + NL4.3 (X4) [10]: > 3330 nM
B6	2 nM	1.6 nM	1.9 nM	7.3 nM	7.3 nM	6.4 nM	8.78	
B7	3.3 nM	4.1 nM	1.3 nM	17 nM	12 nM	14 nM	8.29	
B8								IC50, MT-4 + NL4.3 (X4) [10]: 0.2 nM; IC50, PBMC + NL4.3 (X4) [10]: 0.03 nM; IC50, U87 + NL4.3 (X4) [10]: 0.53 nM
B9								binding result [9]: binds
B10	3.3 nM	1.2 nM	7.8 nM	10 nM	3.8 nM	27 nM	8.27	% binding relative to hCXCR4 [2]: 97%; % binding relative to hCXCR4 [3]: 70.5%; % binding relative to hCXCR4 [5]: 85.9%; % binding relative to hCXCR4 [6]: 79.5%
B11	0.67 nM	1.2 nM	1.8 nM	4 nM	3.5 nM	7.7 nM	9.21	
B12	9.9 nM	2.5 nM	11 nM	27 nM	9.1 nM	27 nM	8.63	
B13	18 nM	23 nM	4 nM	49 nM	59.5 nM	7.33 nM	8.12	
B14								% binding relative to hCXCR4 [2]: 107%; % binding relative to hCXCR4 [3]: 71.3%; % binding relative to hCXCR4 [5]: 78.9%; % binding relative to hCXCR4 [6]: 77.3%
